Experimental findings from the supplement of paper PMC4967469 are described below.

IC50 is the fitted dose that halves viability relative to control wells, and lower means more sensitive; where the fit passes the top or lowest dose, that dose stands as a limit. AUC is the area under the same curve over the 256-fold range up to the top dose, as a fraction; it is 1 without any effect and falls as sensitivity rises. For part of these data: An inferred top dose was derived from the fitted curves, not read from the paper.

Assay in all cases: Viability of human cancer cell lines after 72 h of drug (GDSC screen)
Compound in one experiment: Nc1ccccc1NC(=O)c1ccc(CNC(=O)OCc2cccnc2)cc1 [MS-275]
As to conditions: top dose 5 µM; top dose inferred. The protocol:
(§1)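 Human cancer cell lines in 384-well plates, medium with 10% serum, drug for 72 h over a 256-fold dose range (nine 2-fold or five 4-fold steps up to the top dose). Adherent lines were fixed and stained with the nucleic acid dye Syto60, suspension lines read with resazurin; signal relative to control wells, capped at 0 and 100%. One two-parameter sigmoid per drug and line, fitted in a mixed model over all curves with the slope shared within a line.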

Compound in a further experiment: COc1cc2nccc(Oc3ccc(NC(=O)Nc4cc(C)on4)c(Cl)c3)c2cc1OC [AV-951]
The following applies: top dose 0.128 µM; top dose inferred. The protocol:
as §1

Compound in another experiment: CCN1CCN(Cc2ccc(NC(=O)c3ccc(C)c(/C=C/c4cnc5[nH]ccc5c4OC)c3)cc2C(F)(F)F)CC1 [HG-6-64-1]
As to conditions: top dose 5.12 µM; top dose inferred. The protocol:
as §1

Compound in a further experiment: CCc1cncnc1N1CCN(Cc2nc3ccc(C(F)(F)F)cc3[nH]2)CC1 [PF-4708671]
As to conditions: top dose 10 µM; top dose inferred. The protocol:
as §1

Compound in the next experiment: CC(=O)Nc1cccc(-n2c(=O)n(C3CC3)c(=O)c3c(Nc4ccc(I)cc4F)n(C)c(=O)c(C)c32)c1 [Trametinib]
The following applies: top dose 1 µM. The protocol: as §1

Compound in a further experiment: CCNC(=O)C[C@@H]1N=C(c2ccc(Cl)cc2)c2cc(OC)ccc2-n2c(C)nnc21 [I-BET-762]
The following applies: top dose 20 µM; top dose inferred. The protocol: as §1

Compound in the next experiment: O=C(NC(COc1ccc2[nH]c(=O)[nH]c2c1)c1ccccc1)c1cccn(Cc2ccc(F)c(F)c2)c1=O [KIN001-244]
The following applies: top dose 20 µM; top dose inferred. As to the method:
as §1

By IC50 is commonly meant the concentration that gives 50% inhibition. As to PSN1 (pancreas, adherent), the AUC was determined as 0.757 in the experiment with MS-275; 0.99 with AV-951; 0.96 with HG-6-64-1; 0.977 in the experiment with PF-4708671; 0.069 with Trametinib; 0.831 with I-BET-762. Besides, in the experiment with KIN001-244, the AUC stood at 0.905. Further, the IC50 with MS-275 is 1.48 µM; in the experiment with AV-951, more than 0.128 µM; in the experiment with HG-6-64-1 it was more than 5.12 µM; with PF-4708671, more than 10 µM; with Trametinib, less than 0.00391 µM; with I-BET-762 it was 9.97 µM. Besides, the IC50 with KIN001-244 is 19.5 µM.
Regarding “QIMR-WIL (acute myeloid leukaemia, suspension)”, the AUC in the experiment with MS-275 was found to be 0.63; in the experiment with AV-951, 0.965; with HG-6-64-1, 0.71; with PF-4708671, 0.979; in the experiment with Trametinib, 0.948; with I-BET-762, 0.477. Besides, the AUC with KIN001-244 was determined as 0.761. For the same cell line, the IC50 with MS-275 is 0.704 µM; in the experiment with AV-951 it was more than 0.128 µM; with HG-6-64-1, 1.23 µM; with PF-4708671, more than 10 µM; in the experiment with Trametinib, more than 1 µM; in the experiment with I-BET-762, 1.08 µM. Moreover, the IC50 with KIN001-244 came out at 6.89 µM.
For RC-K8 (B-cell lymphoma, suspension), the AUC in the experiment with MS-275 was 0.894; with AV-951 it was 0.992; with HG-6-64-1, 0.978; with PF-4708671 it was 0.943; with Trametinib, 0.975; with I-BET-762, 0.907. Besides, the AUC in the experiment with KIN001-244 came to 0.951. The IC50 was 4.61 µM with MS-275; more than 0.128 µM with AV-951; more than 5.12 µM with HG-6-64-1; more than 10 µM in the experiment with PF-4708671; more than 1 µM with Trametinib; more than 20 µM in the experiment with I-BET-762. The IC50 with KIN001-244 was more than 20 µM.
As for RCC10RGB (kidney, adherent), the AUC is 0.944 with MS-275; 0.97 with AV-951; 0.615 in the experiment with HG-6-64-1; 0.938 in the experiment with PF-4708671; 0.768 in the experiment with Trametinib; 0.953 with I-BET-762. Moreover, in the experiment with KIN001-244, the AUC was 0.843. For the same cell line, the IC50 with MS-275 was more than 5 µM; with AV-951, more than 0.128 µM; with HG-6-64-1, 0.902 µM; in the experiment with PF-4708671, more than 10 µM; with Trametinib it was 0.841 µM; with I-BET-762, more than 20 µM. In addition, the IC50 with KIN001-244 is more than 20 µM.
Turning to REH (B-cell leukaemia, suspension), the AUC in the experiment with MS-275 is 0.882; in the experiment with AV-951, 0.963; with HG-6-64-1, 0.76; with PF-4708671, 0.987; with Trametinib, 0.93; with I-BET-762, 0.756. The AUC in the experiment with KIN001-244 was found to be 0.762. The IC50 is 4.95 µM in the experiment with MS-275; more than 0.128 µM with AV-951; 1.74 µM in the experiment with HG-6-64-1; more than 10 µM with PF-4708671; more than 1 µM in the experiment with Trametinib; 6.59 µM in the experiment with I-BET-762. The IC50 in the experiment with KIN001-244 was found to be 6.86 µM.
In the case of RF-48 (stomach, adherent), the AUC in the experiment with MS-275 is 0.787; with AV-951 it was 0.979; in the experiment with HG-6-64-1, 0.583; in the experiment with PF-4708671, 0.945; with Trametinib it was 0.95; with I-BET-762, 0.701. In the experiment with KIN001-244, the AUC was 0.602. Further, the IC50 with MS-275 was 2.46 µM; with AV-951, more than 0.128 µM; with HG-6-64-1, 0.558 µM; with PF-4708671 it was more than 10 µM; with Trametinib it was more than 1 µM; with I-BET-762 it was 4.98 µM. The IC50 with KIN001-244 was 2.47 µM.
For RH-1 (rhabdomyosarcoma, adherent), the AUC with MS-275 turned out to be 0.967; in the experiment with AV-951 it was 0.984; with HG-6-64-1, 0.949; with PF-4708671 it was 0.98; with Trametinib, 0.984; in the experiment with I-BET-762, 0.951. The AUC in the experiment with KIN001-244 was 0.654. Moreover, the IC50 with MS-275 is more than 5 µM; with AV-951 it was more than 0.128 µM; with HG-6-64-1, more than 5.12 µM; with PF-4708671 it was more than 10 µM; in the experiment with Trametinib, more than 1 µM; in the experiment with I-BET-762 it was more than 20 µM. Besides, the IC50 with KIN001-244 amounted to 3.08 µM.
For RKO (large intestine, adherent), the AUC with MS-275 is 0.861; in the experiment with AV-951, 0.988; with HG-6-64-1, 0.805; with PF-4708671, 0.972; with Trametinib, 0.457; in the experiment with I-BET-762 it was 0.607. In addition, in the experiment with KIN001-244, the AUC is 0.887. The IC50 with MS-275 was 3.73 µM; in the experiment with AV-951, more than 0.128 µM; with HG-6-64-1, 2.36 µM; in the experiment with PF-4708671, more than 10 µM; with Trametinib it was 0.048 µM; with I-BET-762, 2.4 µM. In addition, in the experiment with KIN001-244, the IC50 came out at 19.5 µM.
Take RL (B-cell lymphoma, suspension): the AUC with MS-275 was determined as 0.939; with AV-951, 0.987; with HG-6-64-1, 0.987; in the experiment with PF-4708671 it was 0.974; with Trametinib, 0.966; with I-BET-762, 0.591. Also, the AUC with KIN001-244 amounted to 0.599. Moreover, the IC50 with MS-275 was more than 5 µM; with AV-951 it was more than 0.128 µM; in the experiment with HG-6-64-1, more than 5.12 µM; in the experiment with PF-4708671, more than 10 µM; with Trametinib, more than 1 µM; with I-BET-762 it was 2.17 µM. In addition, the IC50 with KIN001-244 was 2.28 µM.
